The values that follow come from the supplement of paper PMC7266297.

The subject of assay [1] is KB-3-1. Description: growth inhibition relative to DMSO control (SRB); cervical cancer cells: KB-3-1 is the parent and KB-V1 overexpresses MDR1; SRB is the sulforhodamine B stain; higher = more growth inhibition. As to conditions: 1 µM; 72 h.
Assay [2] has as its system KB-V1. The assay is described as above. As to conditions: 1 µM; 72 h.

Counter-ions that a name gives are not always drawn. This is one part of the list. Single values are uncertain, as repeats are few or missing.
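Further: Read-out is SRB optical density at 490 nm, with the control being wells given 0.5% DMSO vehicle, and compound added one day after cells were plated.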

As for `CN1C(C(=O)Nc2ccccn2)=C(O)c2ccccc2S1(=O)=O` [Piroxicam], the growth inhibition was determined as 40.7% in assay [1] and 14.2% in assay [2].
On the same counts, the results for `COC1CCN(C(=O)c2cc(Cc3n[nH]c(=O)c4ccccc34)ccc2F)CC1` are 2.54% and 23.4%.
For `C[C@H](NC(=O)CCc1nc2ccccc2c(=O)[nH]1)c1ccccc1`, in that order: 46.6% and 14.2%.
Turning to `CC(C)(C)c1cc(NC(=O)Nc2ccc(-c3cn4c(n3)sc3cc(OCCN5CCOCC5)ccc34)cc2)no1` [Quizartinib (AC220)], the results for the growth inhibition in assay [1] and in assay [2] were 56.7% and 52.3%, respectively.
As for `c1ccc(NCc2ccc(CNc3ccccn3)cc2)nc1`, the growth inhibition in assay [1] is below 0%; in assay [2], 9.35%.
For `O=C(O)C(Cc1ccccc1[N+](=O)[O-])=NNc1nc(-c2ccc(Cl)c(Cl)c2)cs1` (mixture of isomers), the growth inhibition in assay [1] and in assay [2] was below 0% in each case.
Consider `FC(F)c1nc2ccccc2n1-c1nc(N2CCOCC2)nc(N2CCOCC2)n1`, for which the growth inhibition in assay [1] worked out at 80.1%; in assay [2], 78.4%.
For the compound `CN[C@@H](C)C(=O)N[C@H](C(=O)N1CCC[C@H]1C(=O)Nc1snnc1-c1ccccc1)C1CCCCC1`, the growth inhibition in assay [1] is 25.1%; in assay [2], 9.32%.
On the same counts, the results for `O=C(c1ccc(/C=C/c2n[nH]c3ccccc23)cc1)N1CCNCC1` are below 0% and 29%.
As to `CC(NCCc1ccc(O)cc1)C(O)c1ccc(O)cc1` (configuration not stated) [Ritodrine HCl], the growth inhibition in assay [1] turned out to be 29.6%; in assay [2] it was 11.7%.
Take `OC[C@@H](O)CN1CCN(c2ccccc2)CC1` [Levodropropizine]: the growth inhibition in assay [1] was found to be 7.21%; in assay [2], 20.5%.
On to `CCN(CCCOc1ccc2c(Nc3cc(CC(=O)Nc4cccc(F)c4)[nH]n3)ncnc2c1)CCOP(=O)(O)O` [Barasertib (AZD1152-HQPA)], for which the growth inhibition turned out to be 73.7% in assay [1] and 49.9% in assay [2].
Take `Oc1nc(-c2ccc(C(F)(F)F)cc2)nc2c1CSCC2`: the growth inhibition was found to be 37.7% in assay [1] and 45.8% in assay [2].
Regarding `CNC(=O)c1cc(Oc2ccc(NC(=O)Nc3ccc(Cl)c(C(F)(F)F)c3)c(F)c2)ccn1` [Regorafenib (BAY 73-4506)], the growth inhibition was 24.9% in assay [1] and 31.9% in assay [2].
As for `Nc1cccc(-c2cc3c(Oc4cccc(O)c4)ncnc3[nH]2)c1`, the growth inhibition in assay [1] worked out at 33.4%; in assay [2] it was 11.6%.
Regarding `CN1CCN2c3ccccc3Cc3ccccc3C2C1` (configuration not stated) [Mianserin HCl], the growth inhibition was found to be 99% in assay [1] and 95% in assay [2].
On the same counts, the results for `Cc1[nH]c(=O)c(C#N)cc1-c1ccncc1` [Milrinone] are 26.9% and 8.51%.
On the same counts, the results for `CCS(=O)(=O)N1CC(CC#N)(n2cc(-c3ncnc4[nH]ccc34)cn2)C1` are 22% and 29.7%.
In the case of `Nc1cccc2c1CN(C1CCC(=O)NC1=O)C2=O` (configuration not stated) [Lenalidomide (CC-5013)], the growth inhibition in assay [1] was 28.2%; in assay [2], 22.2%.
On the same counts, the results for `Cc1ccc(Sc2ccccc2N2CCNCC2)c(C)c1` are 46.3% and 3.09%.
For the compound `CN1CCN(c2ccc3nc(-c4c(N)c5c(F)cccc5[nH]c4=O)[nH]c3c2)CC1` [Dovitinib (TKI-258) Dilactic Acid], the growth inhibition was determined as 11.1% in assay [1] and 63% in assay [2].
For `CC(C)(C)NC(=O)[C@H]1CC[C@H]2[C@@H]3CC[C@H]4NC(=O)C=C[C@]4(C)[C@H]3CC[C@]12C` [Finasteride], in that order: 35.2% and 38%.
For the compound `CNCC[C@H](Oc1cccc2ccccc12)c1cccs1` [Duloxetine HCl], the growth inhibition in assay [1] and in assay [2] was 22.1% throughout.
On to `CC(C)N(CCC(=O)c1ccc2ccccc2c1)Cc1ccccc1`, for which the values for the growth inhibition in assay [1] and in assay [2] were 60% and 17.9%, respectively.
On to `CN1CCN(C2=Nc3cc(Cl)ccc3Nc3ccccc32)CC1` [Clozapine], for which the growth inhibition in assay [1] worked out at 26%; in assay [2], 6.49%.
For `CN(C)CC(=O)Nc1ccc2[nH]c(=O)c3ccccc3c2c1`, in that order: 25.1% and 24.1%.
As for `CN(C)CCc1c[nH]c2ccc(C[C@H]3COC(=O)N3)cc12` [Zolmitriptan], the growth inhibition in assay [1] was found to be 23%; in assay [2], 6.66%.
On the same counts, the results for `CC1=C(C(=O)Nc2cc3cn[nH]c3cc2F)C(c2ccc(C(F)(F)F)cc2)CC(=O)N1` (configuration not stated) are 63.2% and 26.5%.
For `C[C@@H](c1ncncc1F)[C@](O)(Cn1cncn1)c1ccc(F)cc1F` [Voriconazole], the growth inhibition came out at 14.6% in assay [1] and 34% in assay [2].
As for `O=C(Nc1ccncc1)c1cc([N+](=O)[O-])ccc1Cl`, the growth inhibition in assay [1] came out at 18.3%; in assay [2], 33.7%.
Consider `N#CC1(c2ccc(NC(=O)c3cccnc3NCc3ccncc3)cc2)CCCC1` [Apatinib], for which the growth inhibition in assay [1] and in assay [2] was below 0% throughout.
On to `C[C@H](Cc1cc2c(c(C(N)=O)c1)N(CCCO)CC2)NCCOc1ccccc1OCC(F)(F)F` [Silodosin], for which the growth inhibition in assay [1] was 31.8%; in assay [2], 14.7%.
On the same counts, the results for `N#C[C@@H]1C[C@@H]2C[C@@H]2N1C(=O)[C@@H](N)C12CC3CC(CC(O)(C3)C1)C2` [Saxagliptin] are 25.4% and 13.1%.
`CCCNS(=O)(=O)Nc1ncnc(OCCOc2ncc(Br)cn2)c1-c1ccc(Br)cc1` [Macitentan]: the values for the growth inhibition in assay [1] and in assay [2] were 45% and below 0%, respectively.
As for `CS(=O)(=O)N1CCc2c(-c3cnc(N)nc3)nc(N3CCOCC3)nc21`, the growth inhibition was below 0% in assay [1] and 37.5% in assay [2].
On the same counts, the results for `O=C(Nc1cc(C(F)(F)F)cc(C(F)(F)F)c1)c1cc(Cl)ccc1O` are 61.7% and 80.7%.
Regarding `CC(C)c1nc(CN(C)C(=O)N[C@H](C(=O)N[C@@H](Cc2ccccc2)C[C@H](O)[C@H](Cc2ccccc2)NC(=O)OCc2cncs2)C(C)C)cs1` [Ritonavir], the values for the growth inhibition in assay [1] and in assay [2] were 30.9% and 36.7%, respectively.
For `CNC(=O)c1ccc(C)c(-n2c(C)cc(OCc3ccc(F)cc3F)c(Br)c2=O)c1`, in that order: below 0% and 6.25%.
For `CC(NC(=O)c1ccccc1/N=C/c1c(O)ccc2ccccc12)c1ccccc1` (configuration not stated) [Sirtinol], in that order: 7.14% and 10.8%.
For `O=C1NC(=O)/C(=C/c2ccc3nccc(-c4ccncc4)c3c2)S1`, in that order: 75.1% and 77.4%.
As to `COc1cccc2c1C(=O)c1c(O)c3c(c(O)c1C2=O)C[C@@](O)(C(=O)CO)C[C@@H]3O[C@H]1C[C@H](N)[C@@H](O)[C@H](C)O1` [Epirubicin HCl], the figures for the growth inhibition in assay [1] and in assay [2] were 80.2% and 48.5%, respectively.
For `CN(C)Cc1ccc(S(=O)(=O)n2ccc(/C=C/C(=O)NO)c2)cc1` [Resminostat], in that order: below 0% and 27.7%.
As for `CCc1cnn2c(NCc3ccc[n+]([O-])c3)cc(N3CCCC[C@H]3CCO)nc12`, the growth inhibition in assay [1] stood at 85.2%; in assay [2], 93.3%.
In the case of `O=C1N=C(O)NC1(c1ccccc1)c1ccccc1` [Phenytoin sodium], the growth inhibition was found to be 30.4% in assay [1] and 15.6% in assay [2].
On the same counts, the results for `O=C(/C=C/c1ccc(O)c(O)c1)OCCc1ccccc1` [Caffeic Acid Phenethyl Ester] are 64.1% and 22.8%.
On the same counts, the results for `Cn1nnc2c(C(N)=O)ncn2c1=O` [Temozolomide] are 43.9% and 38.6%.
For `O=C(CCCCCCNC(=O)c1cnc(N(c2ccccc2)c2ccccc2)nc1)NO` [Rocilinostat (ACY-1215)], in that order: 52.4% and 9.26%.
Regarding `COc1ccccc1S(=O)(=O)Nc1ccc2c(c1)CN(C)C(=O)N2`, the growth inhibition worked out at 71.3% in assay [1] and 57.3% in assay [2].
For `COc1ccc([C@]2(C#N)CC[C@@H](C(=O)O)CC2)cc1OC1CCCC1` [Cilomilast], in that order: 13.2% and 34%.
For `Cn1cc(-c2ccc3ncc(Cc4ccc5ncccc5c4)n3n2)cn1`, in that order: 100% and 100%.
Take `N=C(N)Nc1ccc(C(=O)Oc2ccc3cc(C(=N)N)ccc3c2)cc1` [Nafamostat Mesylate]: the growth inhibition in assay [1] came to 8.22%; in assay [2], 39.3%.
For `CC(C)(O)CC(=O)NCCn1ccc2ncnc(Nc3ccc(Oc4cccc(C(F)(F)F)c4)c(Cl)c3)c21`, in that order: 14.6% and 56.2%.
On the same counts, the results for `CC1(C)Cc2c(-c3ccccc3)c(-c3ccc(Cl)cc3)c(CC(=O)O)n2C1` [Licofelone] are 1.16% and 36.4%.
In the case of `C=CC(=O)Nc1cccc(Oc2nc(Nc3ccc(N4CCN(C)CC4)cc3)ncc2Cl)c1`, the results for the growth inhibition in assay [1] and in assay [2] were 96.2% and 86%, respectively.
For the compound `N#Cc1c(O)c2c(-c3ccc(-c4ccccc4O)cc3)csc2[nH]c1=O`, the growth inhibition in assay [1] is below 0%; in assay [2], 22.8%.
For `OC(CCN1CCCCC1)(c1ccccc1)C1CC2C=CC1C2` (configuration not stated) [Biperiden HCl], in that order: 8.77% and 38.5%.
For `O=C1CCc2ccc(OCCCCN3CCN(c4cccc(Cl)c4Cl)CC3)cc2N1` [Aripiprazole], the growth inhibition came to 42.6% in assay [1] and 19.6% in assay [2].
For `O=C(Nc1cccc2cccnc12)c1ccc(N2C(=O)[C@@H]3[C@H](C2=O)[C@@H]2C=C[C@H]3C2)cc1` [IWR-1-endo], in that order: below 0% and 4.8%.
For `O=c1n(CCCN2CCN(c3cccc(Cl)c3)CC2)nc2ccccn12` [Trazodone HCl], in that order: 27.5% and 13.8%.
Regarding `COC(=O)C1=C(C)NC(C)=C(C(=O)OCCN2CCN(C(c3ccccc3)c3ccccc3)CC2)C1c1cccc([N+](=O)[O-])c1` (configuration not stated) [Manidipine 2HCl], the growth inhibition in assay [1] was found to be 28.7%; in assay [2] it was 12.8%.
On to `C[C@]1(O)C[C@@H](c2nc(-c3ccc4ccc(-c5ccccc5)nc4c3)c3c(N)nccn32)C1` [OSI-906 (Linsitinib)], for which the growth inhibition amounted to 60.9% in assay [1] and 58.8% in assay [2].
On the same counts, the results for `CCC1=C(C)CN(C(=O)NCCc2ccc(S(=O)(=O)NC(=O)N[C@H]3CC[C@H](C)CC3)cc2)C1=O` [Glimepiride] are 19.6% and 35.8%.
For the compound `CC(COc1ccccc1)N(CCCl)Cc1ccccc1` (configuration not stated) [Phenoxybenzamine HCl], the results for the growth inhibition in assay [1] and in assay [2] were 29.6% and 11.7%, respectively.
On to `CCc1cc2c(cc1CC)CC(NC[C@H](O)c1ccc(O)c3[nH]c(=O)ccc13)C2` [Indacaterol Maleate], for which the figures for the growth inhibition in assay [1] and in assay [2] were 9.55% and 22.4%, respectively.
`CC(C)(C)c1nc(-c2cccc(NS(=O)(=O)c3c(F)cccc3F)c2F)c(-c2ccnc(N)n2)s1`: the growth inhibition in assay [1] worked out at 65.9%; in assay [2] it was 19.5%.
As for `O=C(O)CC[C@H]1CC[C@@](c2cc(F)ccc2F)(S(=O)(=O)c2ccc(Cl)cc2)CC1`, the growth inhibition in assay [1] and in assay [2] was below 0% in each case.
For the compound `CC(C)(CO)c1cc2cc(NC(=O)C3(c4ccc5c(c4)OC(F)(F)O5)CC3)c(F)cc2n1C[C@@H](O)CO`, the figures for the growth inhibition in assay [1] and in assay [2] were 32.4% and 8.19%, respectively.
Take `COc1cc([C@@H]2c3cc4c(cc3[C@@H](O[C@@H]3O[C@@H]5CO[C@@H](C)O[C@H]5[C@H](O)[C@H]3O)[C@H]3COC(=O)[C@H]23)OCO4)cc(OC)c1O` [Etoposide]: the growth inhibition in assay [1] was found to be 42.2%; in assay [2] it was 41.3%.
`CC(C)C[C@H](NC(=O)CNC(=O)c1cc(Cl)ccc1Cl)B1OC(=O)C(CC(=O)O)(CC(=O)O)O1`: the growth inhibition in assay [1] and in assay [2] was below 0% throughout.
For the compound `CN(C)CCN(Cc1ccccc1)c1ccccn1` [Tripelennamine HCl], the growth inhibition is 5.06% in assay [1] and below 0% in assay [2].
For `CC(C)CN(C[C@@H](O)[C@H](Cc1ccccc1)NC(=O)O[C@H]1CCOC1)S(=O)(=O)c1ccc(N)cc1` [Amprenavir], in that order: 28% and 7.28%.
